The structures appear in SMILES notation. Where a name gives a salt, the structure may show the parent alone. The list shows a part of the results. Most values come without repeats; read them as rough.
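Also: stationary (unshaken) cultures in 96-well plates, started at OD600 0.05 from mid-exponential cells, with compounds supplied from DMSO stocks.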

For the assay, the system named is Escherichia coli W3110. Description: planktonic growth (OD600) relative to untreated control; higher = more growth. The following applies: 10 µM; 20-24 h; 30 °C; TB.
`CN1CCN(c2c(F)cc3c(=O)c(C(=O)O)cn4c3c2SCC4)CC1` [Rufloxacin] gave a planktonic growth of 8%.
As for `COC(=O)C1=C(C)NC(C)=C(C(=O)OCCN(C)Cc2ccccc2)C1c1cccc([N+](=O)[O-])c1` (stereo unspecified) [Nicardipine hydrochloride], the planktonic growth is 93%.
The compound `COC(=O)C1=C(C)NC(C)=C(C(=O)OCC(C)C)C1c1ccccc1[N+](=O)[O-]` (stereo unspecified) [Nisoldipine] returned a planktonic growth of 98%.
In the case of `CCC1NC(=O)c2cc(S(N)(=O)=O)c(Cl)cc2N1` (stereo unspecified) [Quinethazone], the planktonic growth was 112%.
For the compound `O=C1[C@H](CC[C@H](O)c2ccc(F)cc2)[C@@H](c2ccc(O)cc2)N1c1ccc(F)cc1` [Ezetimibe], the planktonic growth amounted to 93%.
The compound `Cc1cnc(C(=O)NCCc2ccc(S(=O)(=O)NC(=O)NC3CCCCC3)cc2)cn1` [Glipizide] registered a planktonic growth of 91%.
The compound `CN1CCC(=C2c3ccccc3CCc3sccc32)CC1` [Pizotifen malate] returned a planktonic growth of 99%.
`CN1CCOC(c2ccccc2)c2ccccc2C1` (stereo unspecified) [Nefopam hydrochloride] registered a planktonic growth of 95%.
For `CN(C)[C@@H]1C(O)=C(C(=O)NCNCCCC[C@H](N)C(=O)O)C(=O)[C@@]2(O)C(O)=C3C(=O)c4c(O)cccc4[C@@](C)(O)[C@H]3C[C@@H]12` [Lymecycline], the planktonic growth was determined as 80%.
On to `CCCCNc1ccc(C(=O)OCCN(C)C)cc1` [Tetracaine hydrochloride], for which the planktonic growth was found to be 91%.
The compound `CCCCCOC(=O)Nc1nc(=O)n([C@@H]2O[C@H](C)[C@@H](O)[C@H]2O)cc1F` [Capecitabine] showed a planktonic growth of 93%.
The figure for `CCN(CC)CCOc1ccc(C(=C(Cl)c2ccccc2)c2ccccc2)cc1` [Clomiphene citrate (Z,E)] is 109%.
The compound `Cc1cnc(C(=O)O)c[n+]1[O-]` [Acipimox] had a planktonic growth of 95%.
Consider `O=C(O)[C@H]1/C(=C/CO)O[C@@H]2CC(=O)N21` [Clavulanate potassium salt], for which the planktonic growth was determined as 83%.
In turn, `O=C(OCCOCCO)c1ccccc1Nc1cccc(C(F)(F)F)c1` [Etofenamate] showed a planktonic growth of 104%.
The figure for `Nc1nc2[nH]cc(CCc3ccc(C(=O)N[C@@H](CCC(=O)O)C(=O)O)cc3)c2c(=O)[nH]1` [Pemetrexed disodium] is 104%; for `COc1ccc(C(=O)c2ccccc2O)c(O)c1` [Dioxybenzone] it is 89%.
The figure for `CC(C)(C)NC[C@H](O)COc1ccccc1C1CCCC1` [Penbutolol sulfate] is 104%; for `COc1ccc(CN2CCN(C(c3ccc(F)cc3)c3ccc(F)cc3)CC2)c(OC)c1OC` [Lomerizine hydrochloride] it is 103%; for `CCN1CCC[C@H]1CNC(=O)c1c(O)c(Cl)cc(Cl)c1OC` [Raclopride] it is 91%.
As for `CC[C@@H]([C@H](C)O)n1ncn(-c2ccc(N3CCN(c4ccc(OC[C@@H]5CO[C@@](Cn6cncn6)(c6ccc(F)cc6F)C5)cc4)CC3)cc2)c1=O` [Posaconazole], the planktonic growth is 114%.

For the origin of these results see the supplement of paper PMC7580552.
